In PubChem BioAssay (NCI):
Values joined by “and” are separate entries in the source; they are usually repeats but may differ in a detail not shown here. Identical values can stand only once.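 A five-concentration, 48-hour dose response in 96-well plates underlies each endpoint, interpolated linearly between surrounding concentrations. GI50 = concentration required for 50% inhibition of growth. TGI denotes the concentration required for complete inhibition of growth.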

Tested on: NCI-H322M lung
Assay: growth of human tumour cells (NCI), 48 h

`CCN(CC)c1nc(N(C)C)c2cc(OC)ccc2n1` and `COc1ccc(/C(C)=N/NC(N)=S)c(OC)c1` cannot be ordered by TGI: greater than 100 µM for the first, greater than 100 µM for the second.

Compared with `CN(C)/C=N/S(=O)(=O)c1nn2c(C=O)c(-c3ccc(-c4ccc([N+](=O)[O-])cc4)o3)nc2s1`, `Cc1ccc(NC(=O)c2nc(S(C)=O)oc2-c2ccc(F)cc2)cc1Nc1nccc(-c2cccnc2)n1` (configuration not stated) is 1.8-fold lower in TGI: 28.3 µM for the first, 15.4 µM for the second.

`CC(=O)NC(CCCCNC(=O)N(C)N=O)C(=O)NCc1ccccc1` (configuration not stated) and `COC(Cc1ccccc1)NC(C)=O` (configuration not stated) cannot be ordered by TGI: greater than 100 µM for the first, greater than 100 µM for the second.

First: CC[C@]12CCCN3CC[C@]4(C(=C(C(=O)OC)C1)Nc1ccccc14)[C@@H]32
Second: Cn1c(=S)sc2nc3ccccc3n2c1=S
The TGI of the first is higher: greater than 100 µM for the first, 29.2 µM for the second.

`CCOC(=O)C1(Cc2ccccc2)Cc2ccccc2C1=O` (configuration not stated) and `CC1=NN(C(=O)Cc2ccccc2)C(=O)/C1=C\c1ccco1` cannot be ordered by TGI: greater than 100 µM for the first, greater than 100 µM for the second.

`CN1CCN(c2ccc(-n3cc(C(=O)O)c(=O)c4cc(F)c(N5CCN(C)CC5)cc43)nc2)CC1` and `O=C(CN1CCN(c2ccc(Cl)cc2)CC1)N1CCN(c2nnc(-c3ccccc3)c(-c3ccccc3)n2)CC1` cannot be ordered by TGI: greater than 100 µM for the first, greater than 100 µM for the second.

`CC(C)CC(=O)NS(=O)(=O)c1ccccc1` and `CC[C@@]1(O)C(=O)OCc2c1cc1n(c2=O)Cc2c-1nc1ccccc1c2/C=N\NC(=O)C(C)N` (some centres not stated) cannot be ordered by TGI: greater than 100 µM for the first, greater than 43.7 µM for the second.

`Cc1ccc(S(=O)(=O)n2cc(-c3nnnn3-c3ccc(Cl)cc3)c(=O)c3ccccc32)cc1` and `COc1ccc(Nc2ncccc2C(=O)NCc2cn(Cc3cccc(Oc4ccccc4)c3)nn2)cc1` cannot be ordered by TGI: greater than 100 µM for the first, greater than 100 µM for the second.

First: O=C(CCl)Nc1ccc2c(c1)C(=O)c1ccc(NC(=O)CCl)cc1C2=O
Second: O=C1C(Cl)=C(Nc2cccc(O)c2)C(=O)N1c1cccc(Cl)c1Cl
The TGI of the first is 10-fold lower: 4.82 µM for the first, 49.7 µM for the second.

`COc1cccc(-n2c(N)c(-c3nc4cc(C(F)(F)F)ccc4s3)c3ccc([N+](=O)[O-])cc3c2=O)c1` and `Cc1cc(-c2nc3cc(F)c(F)cc3s2)ccc1N` cannot be ordered by TGI: greater than 100 µM for the first, greater than 100 µM for the second.

Going from `O=c1cccc(C#CC#C/C=C/CO)o1` to `O=C(/C=C/c1cccnc1)c1ccccc1O`, the TGI rises from 7.56 µM to 89.9 µM (12-fold).

`COc1ccc(Cn2c(Br)c3c(c2-c2cc(OC)c(OC)c(OC)c2)CCc2sc(NC(C)=O)nc2-3)cc1` and `COc1ccc(-c2nocc2-c2cc(OC)c(OC)c(OC)c2)cc1` cannot be ordered by TGI: greater than 100 µM for the first, greater than 100 µM for the second.

Going from `Cn1c(=O)c2nc(N3CCCCC3)cnc2n(C)c1=O` to `COc1cc2c3c(c4c5ccccc5[nH]c4c2c(OC)c1OC)C(=O)N(CCN1CCCCC1)C3=O`, the TGI falls from greater than 100 µM to 2.9 µM.

Going from `CC(C)=CCC[C@H](C)[C@H]1CC[C@@H](C)c2cc(O)c(C)cc21` to `Oc1cc2c(cc1O)-c1[nH]ncc1CC2`, the TGI rises from 32 µM to greater than 100 µM.

First: CC1OC(OC2CC(O)(C(=O)CO)Cc3c(O)c4c(c(O)c32)C(=O)c2ccccc2C4=O)CC(N)C1O (configuration not stated)
Second: CN1OC2OC(=O)OC2[C@H]1[C@H]1O[C@H](c2ccccc2)OC1(C)c1cc(OC(=O)c2ccccc2)ccc1OC(=O)c1ccccc1 (some centres not stated)
The TGI of the first is lower: 1.28 µM for the first, greater than 50 µM for the second.

Compared with `NC[C@@](O)(c1ccc(Cl)cc1)c1ccc(-c2cn[nH]c2)cc1`, `COc1ccc(CNc2nc(NCc3ccc(OC)cc3)c3n[nH]c(C(C)C)c3n2)cc1` is 5.5-fold higher in TGI: 6.03 µM for the first, 33.4 µM for the second.

Compared with `O=C(Nc1ccc(Br)cc1F)c1cc(Br)ccc1O`, `COc1cc(/C=C(\C#N)c2ccccn2)cc(Br)c1O` is higher in TGI: 9.15 µM for the first, greater than 100 µM for the second.

Compared with `CCN1CCN(C(=O)[C@]23CCC(C)(C)C[C@@H]2C2=CC[C@@H]4[C@@]5(C)C/C(=C/c6cccnc6)C(=O)C(C)(C)[C@@H]5CC[C@@]4(C)[C@]2(C)CC3)CC1`, `CC(O[Si](C)(C)C)C1C=CC(C)n2c(=O)n(-c3ccccc3)c(=O)n21` (configuration not stated) is higher in TGI: 9.25 µM for the first, greater than 100 µM for the second.

`Cc1nc2cc(N)c(Cl)cc2[nH]1` and `Cc1nc(C)c(N2CCN(C#N)CC2)c(=O)[nH]1` cannot be ordered by TGI: greater than 100 µM for the first, greater than 100 µM for the second.

`COC(=O)NN1C(=O)C(=P(c2ccccc2)(c2ccccc2)c2ccccc2)C(C(=O)OC)=C1C` and `c1ccc2c(c1)C(=Nc1ccc(N=C3c4ccccc4-c4ccccc43)cc1)c1ccccc1-2` cannot be ordered by TGI: greater than 100 µM for the first, greater than 100 µM for the second.

First: CCOP(=O)(OCC)/C(C#N)=C/c1c(C)[nH]c2ccccc12
Second: N#CC(c1cc(Cl)ncn1)c1nc2ccccc2s1 (configuration not stated)
The TGI of the first is higher: greater than 100 µM for the first, 23.7 µM for the second.

`OCSc1nn(CO)c(=S)s1` and `CC(NC(=O)C(N)CC(=O)O)NC(=O)N1CCCC1` (configuration not stated) cannot be ordered by TGI: greater than 100 µM for the first, greater than 100 µM for the second.

Compared with `CC[C@]12CCCN3CC[C@]4(C(=C(C(=O)OC)C1)Nc1ccccc14)[C@@H]32`, `COc1cc2c3c(c4c5ccccc5[nH]c4c2c(OC)c1OC)C(=O)N(CCN1CCCCC1)C3=O` is 37-fold lower in GI50: 26.6 µM for the first, 0.712 µM for the second.

`Cc1ccc(S(=O)(=O)n2cc(-c3nnnn3-c3ccc(Cl)cc3)c(=O)c3ccccc32)cc1` and `O=C(CN1CCN(c2ccc(Cl)cc2)CC1)N1CCN(c2nnc(-c3ccccc3)c(-c3ccccc3)n2)CC1` cannot be ordered by GI50: greater than 100 µM for the first, greater than 100 µM for the second.

Compared with `O=C(CCl)Nc1ccc2c(c1)C(=O)c1ccc(NC(=O)CCl)cc1C2=O`, `O=C1C(Cl)=C(Nc2cccc(O)c2)C(=O)N1c1cccc(Cl)c1Cl` is 9.6-fold higher in GI50: 1.81 µM for the first, 17.4 µM for the second.

Going from `O=c1cccc(C#CC#C/C=C/CO)o1` to `O=C(/C=C/c1cccnc1)c1ccccc1O`, the GI50 rises from 2.89 µM to 28.1 µM (9.7-fold).

Going from `COc1ccc(Cn2c(Br)c3c(c2-c2cc(OC)c(OC)c(OC)c2)CCc2sc(NC(C)=O)nc2-3)cc1` to `COc1ccc(-c2nocc2-c2cc(OC)c(OC)c(OC)c2)cc1`, the GI50 falls from 8.08 µM to 0.666 µM (12-fold).

Going from `COc1ccc(Nc2ncccc2C(=O)NCc2cn(Cc3cccc(Oc4ccccc4)c3)nn2)cc1` to `COc1ccc(CNc2nc(NCc3ccc(OC)cc3)c3n[nH]c(C(C)C)c3n2)cc1`, the GI50 rises from 5.24 µM to 8.56 µM (1.6-fold).

Going from `Cc1ccc(NC(=O)c2nc(S(C)=O)oc2-c2ccc(F)cc2)cc1Nc1nccc(-c2cccnc2)n1` (configuration not stated) to `S=C(N/N=C(/c1ccccc1)c1ccccn1)Nc1cccc(Cl)c1`, the GI50 falls from 4.61 µM to 2.12 µM (2.2-fold).

First: NC[C@@](O)(c1ccc(Cl)cc1)c1ccc(-c2cn[nH]c2)cc1
Second: O=C(Nc1ccc(Br)cc1F)c1cc(Br)ccc1O
The GI50 of the first is 2.4-fold higher: 1.08 µM for the first, 0.442 µM for the second.

Work on `CCN1CCN(C(=O)[C@]23CCC(C)(C)C[C@@H]2C2=CC[C@@H]4[C@@]5(C)C/C(=C/c6cccnc6)C(=O)C(C)(C)[C@@H]5CC[C@@]4(C)[C@]2(C)CC3)CC1` yielded a GI50 of 2.87 µM.

With `S=C(N/N=C(/c1ccccc1)c1ccccn1)Nc1cccc(Cl)c1` the TGI was 2.71 µM and 18.4 µM.
